Experimental data: publication PMC6919601, “Identification of Plasmodium dipeptidyl aminopeptidase allosteric inhibitors by high throughput screening” (PLoS ONE, 2019)
Hit rate of the full screen: of about 110,000 compounds, about 230 (0.21%) showed an effect of 50% or more. Some of the results follow.

Each compound was assayed against DPAP1 (Plasmodium falciparum, UniProt Q8IIJ9) (assay: primary screen, percent inhibition; read by cleavage of a fluorogenic dipeptide substrate; higher = more effect of the substance).
Set-up: species or system P. falciparum D10 trophozoite lysates; single well
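Note: 30 min substrate incubation versus DMSO and 10 µM JCP410 controls.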

Chain of DPAP1 (Q8IIJ9 whole entry, looked up): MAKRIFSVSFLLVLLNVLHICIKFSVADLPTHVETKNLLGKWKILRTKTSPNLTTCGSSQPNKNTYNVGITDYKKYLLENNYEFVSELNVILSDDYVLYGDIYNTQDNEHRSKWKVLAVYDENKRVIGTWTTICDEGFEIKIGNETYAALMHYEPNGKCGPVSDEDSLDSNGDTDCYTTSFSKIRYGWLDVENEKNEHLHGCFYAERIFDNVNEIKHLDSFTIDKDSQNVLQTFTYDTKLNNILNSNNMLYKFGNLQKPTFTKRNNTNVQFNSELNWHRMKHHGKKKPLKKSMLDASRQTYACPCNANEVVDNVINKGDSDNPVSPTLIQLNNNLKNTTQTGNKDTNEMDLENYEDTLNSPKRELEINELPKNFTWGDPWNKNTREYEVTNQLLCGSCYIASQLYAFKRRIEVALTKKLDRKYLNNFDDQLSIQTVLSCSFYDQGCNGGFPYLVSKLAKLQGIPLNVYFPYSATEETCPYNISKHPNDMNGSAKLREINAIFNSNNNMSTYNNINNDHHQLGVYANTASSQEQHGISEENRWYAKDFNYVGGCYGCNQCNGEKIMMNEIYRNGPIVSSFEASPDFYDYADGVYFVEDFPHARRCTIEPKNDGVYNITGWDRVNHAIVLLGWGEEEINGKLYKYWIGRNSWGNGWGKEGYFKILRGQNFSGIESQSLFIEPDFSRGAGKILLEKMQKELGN

Compound	% Inhibition @ 10 uM
CCn1cc(C2=NOC(C(=O)NCCN3CCOCC3)C2)c(C)n1 (stereo not drawn)	4.95%
CN(C)c1ccc(/C=C/CN2CC=C(c3ccc(F)cc3)CC2)cc1	1.57%
O=C(O)C(O)(c1ccccc1)C(O)c1ccccc1 (stereo not drawn)	2.36%
O=C(c1cccnc1)N1CCN(C(c2ccccc2)c2ccccc2)CC1	3.44%
Cc1ccc2c(c1)-c1onc(C(=O)N(C)Cc3ccco3)c1CO2	4.58%
CCOC(=O)c1nnn(-c2nonc2N)c1CN1CCCC(C)C1 (stereo not drawn)	-3.64%
CC1CCCCC1NC(=O)NCc1noc2ccccc12 (stereo not drawn)	6.84%
CCc1cccc(O[C@@H]2O[C@@H]3COC(C)(C)O[C@H]3[C@H](O)[C@H]2NC(C)=O)c1	0.673%
O=c1c2c(Br)c3c(=O)n(CCO)c(=O)c3c(Br)c2c(=O)n1CCO	21.6%
CC(=O)c1c(S)nc(-c2ccccc2)nc1NCc1ccccc1	5.35%
COc1ccc(CCNC(=O)Cn2nc(C)n3c(cc4sccc43)c2=O)c(OC)c1	6.46%
Cc1ccc(/C=C/C2=NC(=C\c3cccs3)/C(=O)O2)cc1	-1.29%
COc1ccc(C2CC(=O)N(CCCN(C)C)C2)cc1 (stereo not drawn)	2.41%
CCN(CC)CCCNC(=O)Cn1ncc2c3ccccc3n(Cc3ccccc3C)c2c1=O	6.46%
c1ccc(-c2nc(CN3CCN(c4ccccc4)CC3)cs2)cc1	3.8%
CN1CCC(N(C)Cc2ccc(F)c(F)c2)CC1	-4.5%
CCCc1nc2c3ccccc3nc(-n3nc(C)cc3C)n2n1	-2.41%
C/C(=N\OCc1nc2c3cnn(Cc4ccccc4)c3ncn2n1)c1ccccc1	4.54%
COc1ccc(/C=C/C(=O)NC(=O)c2ccccc2OCC(=O)c2ccc(Br)cc2)cc1	-6.69%
CCc1c(-c2ccccc2)n(Cc2ccccn2)c2nc3c(c(=O)n(C)c(=O)n3C)n12	-2.67%
FC(F)(F)c1cccc(CSc2nc3ccncc3[nH]2)c1	3.3%
CC1CCN(C(=O)Nc2cn(C)c(=O)c3ccccc23)CC1	4.44%
Cc1cc(C)c(C(N)=O)c(Nc2ccc(F)cc2)n1	-0.736%
CCOc1cc(C)c(C(C)C)cc1S(=O)(=O)NCc1ccccn1	-5.45%
COc1cc(C2C(C#N)=C(N)Oc3[nH]nc(C(C)(C)C)c32)ccc1OC(C)C (stereo not drawn)	-4.33%
CC(C)(C)c1ccc(-c2nnc3sc(COc4ccc(F)cc4)nn23)cc1	6.49%
O=C(Cn1c(=O)n(Cc2ccccc2)c(=O)c2sc3ccccc3c21)N1CCCC1	2.04%
